Measurements: PubChem BioAssay AID1508624 (National Center for Advancing Translational Sciences (NCATS), 2021)
Screen size: about 48,000 compounds; about 120 (0.25%) were called active. Another 4% or so got no clear call; they are omitted. The call rests on the fitted dose curve; in most records, active means well fitted activation curve with a large enough effect; inconclusive means small, poorly fitted or top-dose-only effect, or another doubt; inactive means no such curve, though single readings can be large or run the other way. The list shows a part of the results.

Assay: Primary qHTS for Identification of Small Molecule Activators of Huntingtin-Antisense Promoter Activity; further: nearly all actives have a fitted effect of over 55% in size
Details: HEK293 HTT-AS promoter firefly luciferase reporter, 24 h; series mostly up to 57.5 µM; activity change, positive = activation: at the top concentration
Outline: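 HEK293 cells carrying firefly luciferase reporters were seeded at 2,500 per well in Opti-MEM and cultured for 24 h. They were then treated with compounds at up to 57.5 uM final for 24 h at 37 degrees C before Dual-Glo luminescence readout.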

Activity change, positive = activation, inactive:
Cc1cc(=O)n2nc(N3CCC(C(=O)Nc4ccc(C)c(Cl)c4)CC3)sc2n1 -6.87%
Cc1c(C)c2c(c(C)c1O)CCC(C)(COc1ccc(CC3SC(=O)NC3=O)cc1)O2 (centres undefined)
COc1ccc(CNC(=O)Cc2c(C)c3c(cc(C)c4c(C)c(C)oc43)oc2=O)cc1 -3.61%
CCSc1ncc(Cl)c(C(=O)Nc2nc3ccc(OC)cc3s2)n1 -0.764%
COc1ccc(CNC(=O)CCS(=O)(=O)c2ccc3c(c2)oc(=O)n3C)cc1 -1.46% [at 11.5 µM, percent change from vehicle, -100% = no light]
CCOc1cc(C2c3c(-c4ccc(Br)cc4)n[nH]c3C(=O)N2c2ccc(Cl)cc2)ccc1O (centres undefined) -55%
CCn1cc(C(=O)OCC(=O)Nc2ccc(F)cc2F)c(=O)c2ccc(C)nc21 -10.2%
Cc1cccc(-c2nc(Cn3c(=O)cc(-c4ccccc4)c4c(C)nn(C)c43)c(C)o2)c1 -8.28%
CCCn1c2ccccc2c2cnn(CC(=O)NCCc3ccccc3)c(=O)c21 -18.2%
COC(=O)c1ccc(Cn2c(=O)cc(C(F)(F)F)c3c(C)nn(C)c32)cc1 -7%
CCOc1ccc(S(=O)(=O)N(CC(=O)NCCSc2ccccc2)c2ccccc2)cc1 -9.01%
CCN(c1ccc(OC)cc1)S(=O)(=O)c1ccc2[nH]c(=O)ccc2c1 -16.3%
O=C(Cn1c2ncccc2c(=O)n1-c1ccccc1)Nc1ccc(F)c(F)c1 -2.51%
O=C(NCc1ccc(Cl)cc1)C1CCCN(c2nc3ccccc3n3cccc23)C1 (centres undefined) -30.9%
Cc1cc(N2CCCCC2)nc2ccc(NC(=O)/C=C/c3ccccc3Cl)cc12 -16%
Cc1ccccc1Cn1c(=O)n(CCc2ccccc2)c(=O)c2ccccc21 -24.7%
CN[C@@H]1CN(c2ccc3c(=O)c(C(=O)O)cn(-c4nccs4)c3n2)C[C@@H]1OC -34.1% [at 25.1 µM, percent change from vehicle, -100% = no light]
COc1ccc(OC)c(C(C)NC(=O)Cn2c(=O)cc(C)c3c(C)nn(-c4ccc(C)cc4)c32)c1 (centres undefined) -12.5%
Cc1ccc(C)c(N2CCN(Cc3csc(C)c3C)CC2)c1 -16.6%
CCCCC(=O)Nc1ccc2nc(SCC(=O)N3CCCC3)sc2c1 7.68%
COc1ccc(CNC(=O)c2nn(-c3ccccc3C)nc2CO)cc1 -16%
COc1cccc(CNC(=O)C(NS(=O)(=O)c2ccc3c(c2)CCN3C(C)=O)C(C)C)c1 (centres undefined) -24.1%
CCOc1ccccc1CC1C(=O)Nc2ccc(Br)cc21 (centres undefined) -61%
CC=C(C(=CC)c1ccc(O)cc1)c1ccc(O)cc1 -35.1%
COc1ccc(-c2cn3nc(N4CCCC(C(=O)NCc5ccccc5Cl)C4)sc3n2)cc1 (centres undefined) 18%
Cc1cccc(CNC(=O)CCn2ccc3cc(S(=O)(=O)N4CCCC4)ccc32)c1 0%
COc1ccc(OC)c(CCNC(=O)c2cnn(-c3ccccc3)c2C2CCN(C(=O)OC(C)(C)C)CC2)c1 -29.9%
O=c1c(N2CCN(c3cccc(C(F)(F)F)c3)CC2)csc2ccc(Cl)cc12 8.23%
COc1cc(OC)cc(N2CCN(S(=O)(=O)c3ccc(-n4cnnn4)cc3)CC2)c1 -13.1%
COC(=O)c1cc2oc3ccccc3c2n1Cc1cc(C)ccc1C 0.129%
COC(c1ccccc1)(c1ccccc1)[C@H](Oc1nc(C)cc(C)n1)C(=O)O
CC(O)C1C(=O)N2C(C(=O)O)=C(SC3CNC(C(=O)N(C)C)C3)C(C)C12 (centres undefined) -14.7%
Cc1nn(C)c2c1c(-c1ccccc1)cc(=O)n2C(C)C(=O)NCc1ccc(F)cc1 (centres undefined) -11.2%
CCN1CCN(C(c2cccc(F)c2)c2c(O)cc(C)n(Cc3ccco3)c2=O)CC1 (centres undefined) 5.04%
O=C1CC(c2ccccc2)Cc2[nH]c(=O)c(-c3nc(-c4ccc(Cl)cc4)cs3)cc21 (centres undefined) -37.6%
CC(=O)c1cccc(NC(c2ccc(F)cc2)c2nnc(-c3ccccc3)o2)c1 (centres undefined) -32.7%
CCSc1nnc2c(n1)OC(CC)N(C(C)=O)c1ccccc1-2 (centres undefined) -15.3%
Cc1ccc(-n2nnnc2CNC(=O)C(C)C)cc1C -0.184%
CCc1ccccc1NC(=O)NCc1ccc2c(c1)CCN2C(=O)c1ccccc1 -14.1%
O=C(Nc1ccccc1C(=O)OCc1cc(=O)n2c3c(sc2n1)CCCC3)c1cccc(Cl)c1 -7.24%
O=C(CSc1nccn1Cc1ccccc1)NCc1ccccc1Cl 2.19%
CCOC(=O)CC(NC(=O)N1CCC(CN2CCC(C)CC2)CC1)c1ccccc1 (centres undefined) -8.18%
CC(C)Cn1cc(NC(=O)N2CCN(c3ccccc3F)CC2)c2ccccc2c1=O -11.9%
CC1(C)[C@@H]2CC[C@@]1(C)C(=O)C2 -5.54%
CC1=C(C(=O)Nc2ccc(C)cc2C)C(c2ccccc2)n2ncc(C(=O)Nc3ccccc3)c2N1 (centres undefined) -20.9%
CCOC(=O)c1c(-c2ccccc2)csc1NC(=O)c1cc(-c2ccc(Cl)cc2)on1 -1.36%
CCOC(=O)c1sc(NC(=O)c2cc(-c3ccc(F)cc3)on2)c(C(=O)OCC)c1C -1.08%
COC(=O)c1ccc2c(=O)n(CCCCCC(=O)N3CCN(c4ccc(OC)cc4)CC3)c(=O)[nH]c2c1 17.5%
Cc1c(CC(=O)NCCc2ccc(Cl)cc2)c(=O)oc2c(C)c3occ(C(C)(C)C)c3cc12 -7.98%
Cc1ccc(NC(=O)C2CCCN(S(=O)(=O)c3cccc4cccnc34)C2)c(C)c1 (centres undefined) -10.5%
CCOC(=O)CSc1nc2ccc(NC(=O)c3ccccc3F)cc2s1 -20.5%
CCOc1ccc(CNC(=O)c2ccc(Sc3ccc(Cl)cc3)c(NC(C)=O)c2)cc1OC -34.5%
CCS(=O)(=O)c1nc(S(=O)(=O)c2ccc(Cl)cc2)c(NCc2ccccc2Cl)s1 -22.7%
COC(=O)C1=C(C)NC(C)=C(C(=O)OCCN2CCN(C(c3ccccc3)c3ccccc3)CC2)C1c1cccc([N+](=O)[O-])c1 (centres undefined) -14.1%
O=C(NCCC1=CCCCC1)c1ccc2c(c1)ncn2-c1ccc(F)c(F)c1 8%
CC(=O)c1ccc(N2CCN(S(=O)(=O)c3ccc4[nH]c5c(c4c3)CCCC5)CC2)cc1 -34.6%
O=c1c2c(-c3ccc(Cl)cc3)ccnc2[nH]n1-c1ccccc1 -4.48%
CCc1ccc(Nc2nc(N)nc(CSc3nc4ccccc4s3)n2)cc1 -14.7%
CCN(Cc1ccccc1)Cc1c(O)ccc2c(=O)c(-c3ccccc3Cl)c(C(F)(F)F)oc12 -4.68%
